± gives the standard deviation of the averaged measurements. The list shows a part of the results.
tested on: PfAP2-LT AP2 domain (GST-tagged); assay: gcPBM binding intensity (ln(normalized median fluorescence intensity)); higher = stronger DNA binding
Procedure, shortened: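 GST-fused DNA-binding domains of P. falciparum, expressed in E. coli, were applied at about 25 μg on average for 1 h to an Agilent 4 × 180k array of primer-extended double-stranded 36-bp intergenic genomic probes and negative controls. Binding intensity is the highest Masliner-normalised natural-log median intensity across replicate spots of either probe orientation, measured with Alexa488 anti-GST antibody and a 488 nm scan.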

Row | Sequence | gcPBM binding intensity (ln)
1 | ATTTTTCTTTTATTAACACACATATAAATAAATACA [CACACA_site2876] | 8.6 ± 0.4
2 | ATATATATATATATATATATATATGTTTGATTTTTT [XGTACX_negctrl_site98] | 10.05 ± 0.028
3 | AATAAAAATAGGAATACGCACACGATGATTAATTTA [CACACA_site1836] | 9 ± 0.51
4 | AATTAACCCTAATTTTGTACATATTCCTTTTCTCAT [XGTACX_site46] | 9.01 ± 0.43
5 | GTTACTATGATTAATGCATGCAAATACCAAAAAAAA [TGCATGCA_site590] | 8.95 ± 0.33
6 | TATACCACACGATATACACACTTGTAGACATCTTTT [CACACA_site6232] | 9.04 ± 0.33
7 | TTATATTCTAGAGACACATGCGATTTTTTATTTTAT [TGCATGCA_site649] | 8.9 ± 0.3
8 | TGGAATAATCCGCGTACACACATATATATATTAAGA [CACACA_site4253] | 9.1 ± 0.4
9 | AAAATAAAAAAAAACACACACATACAAGCATATATA [CACACA_site1585] | 9.63 ± 0.26
10 | AATTAATGGCTAAAGGTGCACAATATATATATTACA | 9.11 ± 0.52
11 | AAAAAAAAATTTAAGGGTACATACAAATATATATAT [XGTACX_site5078] | 8.73 ± 0.43
12 | TCCCTTCATCTTTTATGTACTAAAAAATTGAATAAT [XGTACX_site2172] | 8.39 ± 0.3
13 | TAATACGAATGAGGCACACACCTAGTATACATGCTT [CACACA_site6438] | 9.09 ± 0.4
14 | AATTAAAATTTTTGAAGTACACTCAAAATAAGTTAT [XGTACX_site4490] | 8.43 ± 0.46
15 | CTTTTGAACAGTTCATGTACTCAATTTTTTAATAGT [XGTACX_site6498] | 8.61 ± 0.49
16 | TAATACCTATGGTATAGTACGTATTATTTTATAGAG [XGTACX_site2078] | 8.58 ± 0.47
17 | TTTTTTTTTTTGAAATGTACATTCCAAAAACTGATA [XGTACX_site1495] | 8.61 ± 0.5
18 | TATATATATATATATTTTTTTTTTTTATGCACATGG [CACACA_negctrl_site1573] | 9.6 ± 0.17
19 | TGTTAATTCTTAAGAATTTCCATAATTTCTTCTTTT [CACACA_negctrl_site1065] | 8.48 ± 0.4
20 | TATTTATAAAAAAATACATGCATTTTTTTTTTTTTT [TGCATGCA_site65] | 8.36 ± 0.36
21 | TAATACAAAAACAATGTTCTTTCAAACATAAACATA [CACACA_negctrl_site1628] | 8.57 ± 0.5
22 | TTTGCCATATGACACACACACATGTAAACCCCCTTT [CACACA_site6873] | 9.76 ± 0.38
23 | TATTTTTATTGGTACTGTACCTATTTAGAAATACAT [XGTACX_site6663] | 8.76 ± 0.55

Row | Sequence | gcPBM binding intensity (ln)
24 | ATGATTTCATTTGAGAGTACGTAAAAATAATACGTA [XGTACX_site4958] | 8.47 ± 0.38
25 | TATAATGCTCTTCTTTGTACATATTATGATTATATT [XGTACX_site2332] | 8.89 ± 0.52
26 | ATATATATATAATATAGTACGTATAATATATGAATC [XGTACX_site4385] | 9.12 ± 0.32
27 | AAAGGAAAATGTGTAAAAAGAAATGCTAGGTATATA [GTGCAC_negctrl_site699] | 8.87 ± 0.46
28 | ATATAAAAAAATAAAACACACACATATATATTATAT [CACACA_site8909] | 9.39 ± 0.23
29 | ATTTAAGCATTATTTTGTACGAAAATAAAAAAATGA [XGTACX_site6958] | 8.47 ± 0.4
30 | AGTGGTGTTAAATGTTGTACGATTTTGTGTTATTCG [XGTACX_site178] | 9.24 ± 0.19
31 | TTTTTGTTATATAAAGTGCAGTGACAAGCAGTTTAA | 8.57 ± 0.43
32 | ACTGCGTTTTTACACGCGCACTGCAATGAACAATAT | 8.75 ± 0.35
33 | AAGATAATCACAAAATGTACAGGAAATATGACAACC [XGTACX_site3607] | 9.16 ± 0.3
34 | TATGTAACAAAAAAAAGTACACATATATATAGTGTA [XGTACX_site7772] | 8.78 ± 0.49
35 | AAGAAAAAGGAACGGAAAAACAAACAAGGGGCCCAA [TGCATGCA_negctrl_site4] | 8.96 ± 0.57
36 | AATGGTATAAACAATACACACATAATATATATATTG [CACACA_site4997] | 9.14 ± 0.4
37 | TTTTCTAAATTAATAATACACACTTGCTAAAATCAT [CACACA_site3207] | 8.47 ± 0.46
38 | TTTTTTTAAATATACACACACATTTATACAGATATA [CACACA_site5811] | 9.03 ± 0.3
39 | TTTCTAAAAATAAGAACACACACATATAAGCATATA [CACACA_site8714] | 9.11 ± 0.28
40 | ATATCATTTTCTAGCACACACATTGTTATTACCTTG [CACACA_site902] | 9.45 ± 0.4
41 | AGTCTGAATAAAATTACACACATATACAGATATATA [CACACA_site5054] | 9.03 ± 0.38
42 | TATGTATAATTTCATTGTACTTTTGATATTATCATA [XGTACX_site280] | 8.69 ± 0.38
43 | TATTAGAACATATATGCATGCAATAGATATTCCAAT [TGCATGCA_site297] | 8.87 ± 0.35
44 | AAGGAATAGGCATATACACACAGGTACAGATATATA [CACACA_site4402] | 9.4 ± 0.43
45 | TTTAAATATTACATATGTACTTATAAATATATATAT [XGTACX_site1284] | 8.88 ± 0.45
46 | AAAAAAAAAATTGAAAGTACAAATATGTATTATATA [XGTACX_site2455] | 8.66 ± 0.61

Row | Sequence | gcPBM binding intensity (ln)
47 | TAATAGTATATAAAAAGTACATAATAAGATATGAAA [XGTACX_site1000] | 8.8 ± 0.54
48 | ATTATGTGCCAATACACACACACATATATATATATA [CACACA_site468] | 10.38 ± 0.078
49 | TAAAATATGTCATGTGGTACATGAATAGCTTTTATT [XGTACX_site3809] | 9.13 ± 0.54
50 | AAAAAAAAAAAAAACACACAAATCATAAATAAATAT [CACACA_site6362] | 8.88 ± 0.49
51 | TTTATGGAATAATCACGTACACACAAGAAAAAAAAA [XGTACX_site985] | 9.01 ± 0.45
52 | TGTGTGTGCTTATTTTGTACATATTAGGTAAATATT [XGTACX_site6329] | 9.24 ± 0.27
53 | TTTTTATCTAATCTAATATTATATTATACATATAAT [XGTACX_negctrl_site275] | 8.56 ± 0.55
54 | AACTCATAAAATAATGGTACACAAAAAAAATAAATA [XGTACX_site7648] | 8.9 ± 0.5
55 | CAAGGAACCAGACACACACACATAAATGTATTTATA [CACACA_site6491] | 9.54 ± 0.46
56 | TTTTTTTTTTTCTTTTGTACGTATAAAATTATATAA [XGTACX_site2453] | 8.51 ± 0.48
57 | TTAGATTTATAAGTGTGTACGTAAAATACTTAATAA [XGTACX_site8246] | 8.55 ± 0.47
58 | TTAGGCAAGGCGGGGGGTACGTTTTTATATAATTAT [XGTACX_site8029] | 10.2 ± 0.14
59 | TCATATAAATACACGTGTACATATATATATTACAGT [XGTACX_site1954] | 9.12 ± 0.37
60 | AAAAAATATATATGCACACACAAAAAAACAAATTAA [CACACA_site1278] | 9.38 ± 0.43
61 | AATATAAAAAATAGTTGTACTATATTTAAATATGAC [XGTACX_site2937] | 8.69 ± 0.43
62 | AGTTTGCATATGGAAGTGCATTACCTTGAACATCAT | 8.82 ± 0.41
63 | ACTAAACGAATAAATTGTACAAAGAAATATATTCAT [XGTACX_site6766] | 8.82 ± 0.45
64 | CAACAAAAGTTATTTACACACAAAAGGCAAGGAAAT [CACACA_site7013] | 9.27 ± 0.42
65 | ACTACGTGGATTAGTTCAAGGGAACACGTCCTATAC [CACACA_negctrl_site1427] | 8.87 ± 0.49
66 | AAAGGAAATAAAAACGCACACAGAAATAATATCTAT [CACACA_site457] | 9.4 ± 0.47
67 | TAAAAAATTACATATTGTACAGGCAAAATTACACAT [XGTACX_site1152] | 8.74 ± 0.45
68 | ATATTTCATTTTTGTACACACAACGTTGGAGGGTTT [CACACA_site3043] | 9.19 ± 0.43
69 | CCCACTAAAAAACACACACACACACCCATATATATA [CACACA_site6140] | 10.31 ± 0.078

Row | Sequence | gcPBM binding intensity (ln)
70 | ATATGTATTAAGTGTACACATATAATCTATCTTGTT [CACACA_site5329] | 8.96 ± 0.42
71 | TTTTTTTTATATAGTAGTACTAATTAGAATTTTTAT [XGTACX_site7476] | 8.38 ± 0.53
72 | TGAATTTAGATATATACACACAAAAGTATATACAAT [CACACA_site2804] | 9.02 ± 0.42
73 | TATATGTTTTATAGTACACACATAAATGGACATACT [CACACA_site2191] | 8.97 ± 0.35
74 | ATAAATGACAAATTAACACACATATATTATATATAT [CACACA_site3899] | 8.98 ± 0.39
75 | GTTGGTAGGCGGTACGGTACACGTAAAGTTTTTCTT [XGTACX_site7706] | 8.84 ± 0.54
76 | ACCATATAAATAAACACACACACACGGATATAAATA [CACACA_site7157] | 10.1 ± 0.2
77 | TAATGCCATAATACGTGTACTTAATATATTAGAACA [XGTACX_site5809] | 8.75 ± 0.35
78 | TACATACATACATACACACATACATATGTATATATA [CACACA_site2480] | 9.3 ± 0.33
79 | CTCAAATGTTATTGTAGTACCTAAAAAATATATTCT [XGTACX_site1970] | 8.52 ± 0.37
80 | TTATAATAATAGAACTTTATGTAGAAAAAAGGAAAA [XGTACX_negctrl_site116] | 8.44 ± 0.51
81 | ACACATACTAAAATGTTGTGAAATATGATAATGTGA [CACACA_negctrl_site851] | 9.11 ± 0.47
82 | TATATATATATATATAGTACATATTAATTAATTTAT [XGTACX_site8198] | 9.12 ± 0.37
83 | ATATATTTTAAATATATTATTATTGCATTGTGAAAA [TGCATGCA_negctrl_site106] | 8.35 ± 0.33
84 | TCTTAAAAAATAGGGACACGTAAATATAATATATAA [CACACA_negctrl_site554] | 8.68 ± 0.47
85 | AAAAAAAAAAAAAAAACACACATATATATATATATA [CACACA_site2436] | 10.095 ± 0.0071
86 | TTTAAAACCTTACATACACACAAATATGTAAATATA [CACACA_site6464] | 8.75 ± 0.42
87 | TTCATATAACCTTATAGTACATAATTAAAAATATAA [XGTACX_site6328] | 8.31 ± 0.33
88 | AAAAAAAAAAAAAAAACACACATATAGGTATAAATA [CACACA_site7528] | 8.83 ± 0.45
89 | CACGCATATATACATACATGCATATATACATCCATG [TGCATGCA_site667] | 8.98 ± 0.41
